Laboratory results taken from PubChem BioAssay AID1479 (National Center for Advancing Translational Sciences (NCATS), 2009).
The whole screen tested about 280,000 compounds, of which about 820 (0.29%) were called active. Inconclusive results, whose numbers are uncertain, are shown with a selection of clear calls. Calls come from the whole dose curve; as a rule, active = well fitted curve in either direction with a large enough effect; inconclusive = small, poorly fitted or top-dose-only effect; inactive = flat fitted curve, though single readings scatter. Potencies of inconclusive entries are left out as doubtful fits.

Test: Total Fluorescence Counterscreen for Inhibitors of the Interaction of Thyroid Hormone Receptor and Steroid Receptor Coregulator 2
Conditions: TRb/SRC2 Texas Red total fluorescence interference; series mostly up to 106 µM; fluorescence change, negative = quenching: at the top concentration
How it was run: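 Flags fluorescent or light-absorbing compounds by total fluorescence, S + 2P, at 555 nm excitation and 632 nm emission. Mixture: 20 nM Texas Red SRC2 peptide, 0.6 uM human TRb LBD, 1 uM T3, 5% DMSO; compound exposure 5 h at ambient temperature.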
% is set by controls: 0 for no effect and ±100 for the full control effect; potency is the fitted concentration of half-maximal effect; tags give direction and shape of the fitted curve or compound fluorescence and quenching.

Structure (SMILES)	Potency	fluorescence change, negative = quenching
CCN(c1ccc(OC)cc1)S(=O)(=O)c1nnc(NC(=O)c2ccccc2C)s1	inconclusive [falling, full curve, poor fit]	–
COC(=O)c1ccc2c(=O)n(CCCCCC(=O)N3CCN(c4cc(Cl)ccc4C)CC3)c(=O)[nH]c2c1	inconclusive [quencher, partial curve]	–
CCc1ccc(NC(=O)Cn2ncc3c(C)n(Cc4cccc(Cl)c4)c(C)c3c2=O)cc1	–	inactive: -2.5%
Cc1ccc(CNC(=O)CCCN2C(=O)c3cccnc3Oc3ccc(Cl)cc32)cc1	active: 17.8 µM [quencher]	–
O=C(CSc1nc2ncc(Br)cc2[nH]1)c1cccc([N+](=O)[O-])c1	inconclusive [falling, full curve, poor fit]	–
CCn1ccc2cc(S(=O)(=O)N3CCCN(C(=O)Nc4ccc(C)c(F)c4)CC3)ccc21	inconclusive [falling, partial curve, poor fit]	–
CCOc1ccccc1CNC(=O)C1CCN(S(=O)(=O)c2c(C)noc2/C=C/c2ccc(C)cc2)CC1	inconclusive [falling, full curve, poor fit]	–
COc1ccc(CNC(=O)c2cc3oc4ccccc4c3n2C)cc1OC	–	inactive: 5.11%
Cc1ccc(SCCc2cc[n+](CC(=O)c3ccccc3)cc2)cc1	–	inactive: 0.0005%
O=C(Nc1ccc2c(c1)CCC2)c1cc(S(=O)(=O)N2CCN(c3ccccc3)CC2)ccc1Cl	active: 44.7 µM [fluorescent]	–
CCOC(=O)N1CCC(NC(=O)c2ccc3c(c2)N(Cc2ccc(Cl)cc2)C(=O)c2ccccc2S3(=O)=O)CC1	inconclusive [falling, partial curve, poor fit]	–
Cc1ccc(NC(=O)c2ccc(N(Cc3ccccc3)S(C)(=O)=O)cc2)cc1	inconclusive [quencher, full curve]	–
CC1CCC2C(C)(C)C3CC12CC[C@]3(C)O (stereo partly drawn)	inconclusive [quencher, full curve]	–
O=C(Nc1nc(-c2ccco2)c(-c2ccco2)s1)C1CC(=O)N(c2ccc3c(c2)OCCO3)C1 (stereo not drawn)	active: 25.1 µM [quencher]	–
O=C(CSc1nc2ccccc2c(=O)n1CCCO)N1CCc2ccccc21	inconclusive [falling, full curve, poor fit]	–
CCN1CCN(C(=O)c2sc3ncnc(N4CCc5ccccc5C4)c3c2C)CC1	–	inactive: -0.369%
Cn1c(C(=O)N2CCC(C(=O)N3CCN(c4ccccc4)CC3)CC2)cc2sccc21	inconclusive [quencher, full curve]	–
CCOC(=O)c1sc2nc(C)nc(Nc3ccc(OC)cc3)c2c1C	–	inactive: -3.2%
COc1cccc(NC(=O)CSC2=Nc3ccccc3C3=NC(CC(=O)NCc4ccccc4OC)C(=O)N23)c1 (stereo not drawn)	inconclusive [falling, full curve, poor fit]	–
O=c1oc2ccc(Cl)cc2cc1-c1cn2c(n1)sc1ccccc12	inconclusive [falling, full curve, poor fit]	–
CCOc1ccc(NC(=O)c2c(NCc3cccs3)sc3c2CCCCC3)cc1	–	inactive: 0.0705%
Cc1cccc(OCC(=O)N(Cc2ccc(N(C)C)cc2)Cc2ccco2)c1C	active: 0.447 µM [quencher]	–

Structure (SMILES)	Potency	fluorescence change, negative = quenching
CC1CCN(S(=O)(=O)c2ccc3c(c2)N(CC(=O)NCCN(C)C)C(=O)CS3)CC1	inconclusive [quencher, full curve]	–
COc1ccc2c(Cl)c(C(=O)N/N=C/c3ccc4c(c3)OCO4)sc2c1	–	inactive: 0.0506%
Cc1ccc(-c2c3c(=O)n(C)c(=O)n(C)c3c3c(C)nc4ccccc4n23)cc1	inconclusive [falling, full curve, poor fit]	–
O=C1Nc2ccccc2C1Cc1ccc(Br)cc1 (stereo not drawn)	–	inactive: -22%
COc1ccc(-c2cc(C(=O)Oc3ccc(C#N)cc3)no2)cc1	inconclusive [falling, partial curve, poor fit]	–
COc1cccc(CNC(=O)c2ccc3nc(CCc4ccccc4)oc3c2)c1OC	–	inactive: -23.1%
Cc1ccc(C(C(=O)NCC2CCCO2)N(Cc2ccccc2)C(=O)c2ccc(-c3ccccc3)[nH]2)o1 (stereo not drawn)	inconclusive [falling, full curve, poor fit]	–
CC(=O)Oc1cccc(C(=O)O)c1OC(C)=O	–	inactive: 1.84%
Cc1ccc(Cl)cc1N1CCN(C(=O)CCc2nnc3n(C)c(=O)c4ccccc4n23)CC1	inconclusive [quencher, full curve]	–
COc1ccccc1N1CCN(Cc2nc(-c3cc(OC)c(OC)c(OC)c3)no2)CC1	–	inactive: -2.39%
COc1ccc(NC(=O)CCn2nc(-c3ccc(Cl)cc3)c3ccccc3c2=O)cc1	inconclusive [falling, full curve, poor fit]	–
N#CC1=C(N)n2c(s/c(=C\c3ccco3)c2=O)=C(C#N)C1c1ccco1 (stereo not drawn)	inconclusive [quencher, partial curve]	–
Oc1ccc(O)c2c(O)cccc12	active: 28.2 µM [quencher]	–
Cc1ccccc1CSc1nc2c([nH]c3ccccc32)c(=O)n1-c1ccccc1	inconclusive [falling, full curve, poor fit]	–
COc1cc(SC)ccc1C(=O)N1CCn2c3c(c4cc(C)ccc42)CCCC31 (stereo not drawn)	inconclusive [quencher, full curve]	–
COC(=O)C(O)(CC(=O)Nc1ccc(OC(F)(F)F)cc1)C(F)(F)F (stereo not drawn)	–	inactive: 0.387%
COc1cc2c(cc1OC)C(C)N(C(=O)c1nccnc1C(=O)O)CC2 (stereo not drawn)	–	inactive: -3.6%
COc1ccc(-c2cc(C(F)(F)F)nc(SCCC(=O)Nc3ccc(F)cc3F)n2)cc1	inconclusive [falling, full curve, poor fit]	–
COc1ccc(-n2ccn3c(CC(C)(C)CC(=O)O)nnc3c2=O)cc1	inconclusive [falling, full curve, poor fit]	–
O=C(/C=C/c1ccccc1)NC(NC(=S)Nc1cc(Cl)ccc1Cl)C(Cl)(Cl)Cl (stereo not drawn)	–	inactive: -2.52% [at 53 µM]
O=c1c(-c2cc(-c3ccccc3)nc3c2COc2ccc(Cl)cc2-3)coc2ccccc12	inconclusive [falling, full curve, poor fit]	–
